According to patent US10457682B2, “Small molecules that bind MR1” (OREGON HEALTH & SCIENCE UNIVERSITY, priority 2016, dated 2019):

Target: hpMR1 (UniProt C1ITJ8+Q95460)
Conditions: for presence among ligands eluted from hpMR1 preparations: tandem mass spectrometry, hpMR1-bac, +EC, +MS

Molecule	presence among ligands eluted from hpMR1 preparations	fold lower abundance in hpMR1+MS as compared to hpMR1+EC (extracted ion chromatogram AUC analysis) [fold]
CC(=O)C=Nc1c(NC[C@H](O)[C@H](O)[C@H](O)CO)[nH]c(=O)[nH]c1=O [5-OP-RU, 5-(2-oxopropylideneamino)-6-D-ribityluracil]	eluted and identified in hpMR1+EC and +MS but not hpMR1-bac	
O=c1nc2n(C[C@H](O)[C@H](O)[C@H](O)CO)c3cc(O)ccc3cc-2c(=O)[nH]1 [FO]	most prevalent hpMR1+MS-specific ion in the cluster	
O=c1nc2n(C[C@H](O)[C@H](O)[C@H](O)CO)c(O)c(-c3c[nH]c4ccccc34)nc-2c(=O)[nH]1 [PLIII]	present in both hpMR1+EC and +MS	
Cc1nc2c(=O)[nH]c(=O)nc-2n(C[C@H](O)[C@H](O)[C@H](O)CO)c1O [RL-6-Me-7-OH, reference compound]	eluted and identified in hpMR1+EC and +MS but not hpMR1-bac	2.8
reduced 6-hydroxymethyl-8-D-ribityllumazine [rRL-6-CH2OH]	eluted and identified in hpMR1+EC and +MS but not hpMR1-bac	
